# Source: paper PMC4336329 (PLoS ONE, 2015)
# The whole screen tested about 310,000 compounds, of which about 2,200 (0.71%) showed an effect of 50% or more. The effect is printed as a negative number. The list shows a part of the results.
# Molecular target: human ether-à-go-go-related gene (hERG) potassium channel (human, UniProt Q12809)
# Assay: primary screen, population patch clamp on CHO cells stably expressing hERG
# Chain of human ether-à-go-go-related gene (hERG) potassium channel (Q12809 whole entry, looked up): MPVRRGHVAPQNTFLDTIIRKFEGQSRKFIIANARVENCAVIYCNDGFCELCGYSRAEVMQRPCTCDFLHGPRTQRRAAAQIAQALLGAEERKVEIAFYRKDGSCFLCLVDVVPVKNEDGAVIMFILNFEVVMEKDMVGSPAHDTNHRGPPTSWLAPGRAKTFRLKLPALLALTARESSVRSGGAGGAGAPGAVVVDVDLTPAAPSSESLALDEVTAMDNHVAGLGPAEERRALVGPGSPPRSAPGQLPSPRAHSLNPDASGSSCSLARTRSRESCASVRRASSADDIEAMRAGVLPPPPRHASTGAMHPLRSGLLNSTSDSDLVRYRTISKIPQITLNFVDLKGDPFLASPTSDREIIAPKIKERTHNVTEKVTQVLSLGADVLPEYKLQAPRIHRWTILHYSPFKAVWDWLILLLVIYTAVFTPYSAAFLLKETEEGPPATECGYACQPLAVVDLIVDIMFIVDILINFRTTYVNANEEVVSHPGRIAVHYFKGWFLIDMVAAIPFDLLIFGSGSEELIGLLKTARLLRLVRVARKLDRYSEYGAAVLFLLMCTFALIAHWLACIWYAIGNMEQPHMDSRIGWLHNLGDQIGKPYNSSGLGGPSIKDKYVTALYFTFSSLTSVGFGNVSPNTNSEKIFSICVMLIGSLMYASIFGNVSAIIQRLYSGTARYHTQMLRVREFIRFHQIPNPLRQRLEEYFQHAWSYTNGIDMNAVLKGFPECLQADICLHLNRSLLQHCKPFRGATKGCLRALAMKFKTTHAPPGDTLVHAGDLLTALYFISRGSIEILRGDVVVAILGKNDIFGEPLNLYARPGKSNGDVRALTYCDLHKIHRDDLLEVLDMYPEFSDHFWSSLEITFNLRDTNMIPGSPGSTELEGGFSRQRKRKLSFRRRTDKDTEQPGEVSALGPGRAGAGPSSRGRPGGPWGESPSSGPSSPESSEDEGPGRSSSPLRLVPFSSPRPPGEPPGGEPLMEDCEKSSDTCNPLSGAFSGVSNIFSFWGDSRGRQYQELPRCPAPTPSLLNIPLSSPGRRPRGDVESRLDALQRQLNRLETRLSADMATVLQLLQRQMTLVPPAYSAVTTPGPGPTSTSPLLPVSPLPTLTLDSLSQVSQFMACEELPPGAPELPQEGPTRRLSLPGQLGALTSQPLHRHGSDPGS
row,SMILES,"hERG current change (%, negative = inhibition) at 1uM [%]"
1,NC(=O)c1cccc(S(=O)(=O)N2CCCCC2)c1,-0.91
2,COc1ccc(NC(=O)c2ccco2)cc1NC(=O)c1ccc(C#N)cc1F,7.28
3,CCOCCn1c(CN2CCC(Cc3ccccc3)CC2)nc2c1c(=O)n(C)c(=O)n2C,-3.55
4,COc1ccccc1N(CC(=O)NCc1ccco1)S(C)(=O)=O,15.2
5,COc1nc(N(C)S(=O)(=O)c2ccc(C)cc2)nc(C)c1Cl,15.1
6,Cc1cc(C(=O)CN2C(=O)NC3(CCCc4sccc43)C2=O)c(C)n1-c1ccc(Cl)cc1 (stereo not shown),9.98
7,CCOc1ccc(N2CC(C(=O)NC3CCCCCC3)CC2=O)cc1 (stereo not shown),8.85
8,OC[C@H]1O[C@@H](n2cnc3cc(Cl)c(Cl)cc32)[C@H](O)[C@@H]1O,7.63
9,CC(=O)c1nccs1,9.85
10,Cc1ccc(CN=c2c([N+](=O)[O-])nn(-c3cccc(Cl)c3)n2O)cc1,14
11,O=C(CSc1nc2ncc(Cl)cc2[nH]1)c1ccc2c(c1)OCO2,7.35
12,COc1cccc(OC)c1C(=O)Nc1ccccc1Sc1ccccc1,-4.2
13,O=C(Nc1ccccc1O)c1ccc(NS(=O)(=O)c2cccc3cccnc23)cc1,6.45
14,Nc1ccn(CC(=O)NCc2ccccc2)c(=O)n1,9.63
15,CCc1ccc(N2CC(C)Cn3c2nc2c3c(=O)n(CCN3CCOCC3)c(=O)n2C)cc1 (stereo not shown),-1.2
16,COC(=O)c1ccc(COc2ccc(/C=C/C(=O)c3ccc(OC)c(CSCC(=O)O)c3)cc2OC)cc1,17.2
17,CCOC(=O)c1sc(N2C(=O)C(O)=C(C(=O)c3ccco3)C2c2cccc([N+](=O)[O-])c2)nc1C (stereo not shown),3
18,O=C1CSC(c2ccccc2)N1Nc1nc(N2CCOCC2)nc(N2CCOCC2)n1 (stereo not shown),14.9
19,O=C(COC(=O)c1ccco1)c1ccccc1,16.7
20,CCCCOC(=O)c1cc(-c2ccc(/C=N/n3cnnc3)o2)ccc1Cl,12.7
21,Cc1[nH]nc(SCC(=O)NC2CCCC2)c1[N+](=O)[O-],3.27
22,Cc1ccc(/C=N/NC(=O)CSc2nnc(-c3ccc(Cl)cc3)n2-c2ccccc2)o1,2.41
23,COc1ccc(-c2nn(-c3ccccc3)cc2/C=C/C(=O)NCCCn2ccnc2)cc1OC,10.6
24,CN1CCC(N(C)S(=O)(=O)c2ccc(NC(=O)COc3cccc(C(F)(F)F)c3)cc2)CC1,0.205
25,O=C(N[C@H](Cc1ccc(Cl)cc1)C(=O)O)OCC1c2ccccc2-c2ccccc21,8.98
26,Cc1ccccc1NC(=O)C1CCCN1S(=O)(=O)c1ccccc1C(F)(F)F (stereo not shown),5.87
27,COc1ccc(C(=O)NC2CC2)cc1OC1CCN(Cc2ccc(SC)cc2)CC1,-96.9
28,Cc1ccc(Cn2cccc2C2=NC(C)CO2)cc1 (stereo not shown),-10.2

row,SMILES,"hERG current change (%, negative = inhibition) at 1uM [%]"
1,CC(C)(CNC(=O)CNC(=O)c1ccccc1F)N1CCOCC1,17.5
2,N=C(CC1CC(=O)NC(=O)C1)C1=C(O)CCCC1=O,8.21
3,CC(=O)Nc1ccc(NC(=O)CSc2ccc(-c3cccnc3)nn2)cc1,18.9
4,Cc1cnc(C(=O)OCC(=O)Nc2ccc(Cl)cn2)cn1,5.11
5,O=C(CC1SC(N2CCOCC2)=NC1=O)Nc1cc([N+](=O)[O-])ccc1Cl (stereo not shown),-2.41
6,CCCCN=C1NC(=O)C(CC(=O)Nc2ccc(Cl)cc2)S1 (stereo not shown),9.18
7,CC1(C)CC(=O)C(C=NCCN2CCN(C3CC(=O)N(c4ccc(F)cc4)C3=O)CC2)=C(O)C1 (stereo not shown),10.6
8,O=C(NCc1cccnc1)c1ccccc1NS(=O)(=O)c1ccc(F)cc1,9.83
9,COc1ccc(CCNC(=O)CN(c2ccccc2OC)S(=O)(=O)c2ccc(C)cc2)cc1,14.4
10,CCN(CC)c1ccc(CC(=O)NC(C)Cc2ccccc2)cc1 (stereo not shown),10.9
11,CCOc1ccc(NS(=O)(=O)c2ccc3c(c2)oc(=O)n3C)cc1,20
12,CC(=O)N1c2c(cc(Br)cc2S(=O)(=O)N2CCCCC2)CC1C (stereo not shown),3.68
13,Cn1cnnc1SCc1nnc(-c2ccccc2Br)o1,5.3
14,CC(=O)Nc1sc2c(c1CN1CCN(c3ccccn3)CC1)CCCC2,-12.3
15,CC(C)c1ccc(S(=O)(=O)c2n[nH]n3c2nc(=O)c2ccccc23)cc1,7.77
16,CCN(CC)S(=O)(=O)c1cccc(C(=O)N/N=C/c2ccccc2OCC(=O)O)c1,9.96
17,COc1ccccc1N1CCN(C2CCN(S(=O)(=O)c3ccc(NC(C)=O)cc3)CC2)CC1,5.87
18,CC1(C)CC(=O)C(C=NCCN2CCN(CCc3ccccc3)CC2)=C(O)C1,-13.8
19,CCC(=O)Nc1ccc(S(=O)(=O)Nc2cccnc2)cc1,12.3
20,Oc1[nH]c2ccccc2c1OCc1ccncc1,6.37
21,CCNc1nc(CSc2ccccc2)nc2sc(C)c(C)c12,6.57
22,CN(C)C(=S)SSC(=S)N(C)C,11.6
23,CCN1CCN(C(c2cccs2)C(C)NC(=O)c2cccc(OC)c2OC)CC1 (stereo not shown),2.53
24,COc1ccc(/C=N/NC(=S)Nc2cccc(C(=O)O)c2)cc1OC,9.64
25,Cc1c(N(C)S(=O)(=O)c2cc(C(=O)Nc3ccccn3)ccc2Cl)c(=O)n(-c2ccccc2)n1C,19
26,COC(=O)CN(Cc1ccccc1)S(=O)(=O)c1ccc(OC)c(OC)c1,16.9
27,COc1cc2c(cc1OC)C(C(=O)NCc1ccco1)C1c3ccccc3CCN1C2=O (stereo not shown),5.61
